Among all 320,000 compounds or so, about 200 (0.062%) were called active. This list was built around the results that the source calls inconclusive (neither active nor inactive); the mix of calls is not that of the screen. Calls come from the whole dose curve; as a rule, active = well fitted activation curve with a large enough effect; inconclusive = small, poorly fitted or top-dose-only effect; inactive = no such curve, though single readings can be large or run the other way. Potencies of inconclusive entries are left out as doubtful fits.
Assay: qHTS assay for re-activators of p53 using a Luc reporter; note: nearly all actives have a fitted effect of over 45% in size
Conditions: H1299 p53-A138V BP100-luciferase reporter, luminescence, 24 h; series mostly up to 92.2 µM
Procedure, shortened: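 p53-null H1299 cells stably carrying temperature-sensitive p53-A138V and a BP100-luciferase reporter were pinned with compounds (4-point, 1:5 series) and held 24 hrs at 37 deg C. Luminescence was read 10 min after detection reagent.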
Potency is the fitted concentration of half-maximal effect; tags give direction and shape of the fitted curve.

Question: Which Potency does the source give for COc1ccccc1NS(=O)(=O)c1cc(C(=O)N2CC(C)CC(C)C2)ccc1C (centres undefined) here?
Answer: inactive

Question: Which Potency does the source give for CC(C)COC(=O)NCCCOC(=O)Nc1ccccc1 here?
Answer: inconclusive [activator, single point]

Question: Which Potency does the source give for [N-]=[N+]=NC[C@H](c1ccccc1)N1CCN(Cc2ccccc2)CCC1=O here?
Answer: inactive

Question: For CCOc1ccc(NCc2cccn2-c2nnc(N3CCC(C(=O)NCCCN4CCCCC4C)CC3)s2)cc1 (centres undefined), which Potency is on record?
Answer: inconclusive [activator, partial curve, poor fit]

Question: For COC(=O)c1ccc(/C=N/Nc2nc(C)c(C)s2)cc1, which Potency is on record?
Answer: inactive

Question: With Fc1cccc(Oc2nc3ccccc3n3cccc23)c1 as the molecule, how does the Potency read?
Answer: inactive

Question: Which Potency does the source give for CN1CCN(NC(=S)NC2CCCC2)CC1 here?
Answer: inactive

Question: For Fc1ccccc1OCCSc1nc2ccccc2o1, which Potency is on record?
Answer: inconclusive [activator, partial curve, poor fit]

Question: Which Potency does the source give for N#CCC(=O)Nc1ccc(C(=O)OCC(=O)Nc2ccc3ccccc3c2)cc1 here?
Answer: inconclusive [activator, single point]

Question: With CSc1nnc(NC(=O)c2nc(S(=O)(=O)Cc3ccccc3F)ncc2Cl)s1 as the molecule, how does the Potency read?
Answer: inactive

Question: With CSCCC(=O)Nc1ccc(C(C)=O)cc1 as the molecule, how does the Potency read?
Answer: inconclusive [activator, partial curve, poor fit]

Question: With Cc1ccc(S(=O)(=O)/N=C(/NC(=S)Nc2ccccc2)c2ccccc2)cc1 as the molecule, how does the Potency read?
Answer: inconclusive [activator, partial curve, poor fit]

Question: With CCOC(=O)Cc1csc(NC(=O)C(C)(C)C)n1 as the molecule, how does the Potency read?
Answer: inconclusive [activator, partial curve, poor fit]

Question: With Cc1ccc(N2NC(C)(c3cccs3)NC2=S)cc1 (centres undefined) as the molecule, how does the Potency read?
Answer: inconclusive [activator, partial curve, poor fit]

Question: Which Potency does the source give for Cc1c(N=C/C=C2\N(C)c3ccccc3C2(C)C)c(=O)n(-c2ccccc2)n1C here?
Answer: inconclusive [activator, partial curve, poor fit]

Question: Which Potency does the source give for Cc1sc2ncnc(Nc3ccccc3)c2c1C here?
Answer: inactive

Question: For Cc1ccc(C)c2[nH]c(=O)c(CN(Cc3nnnn3C3CCCCC3)CC3CCCO3)cc12 (centres undefined), which Potency is on record?
Answer: inactive

Question: For O=C(N/N=C/c1c(F)cccc1Cl)C(=O)N1CCCCCC1, which Potency is on record?
Answer: inconclusive [activator, single point]

Question: For Cc1cc(=O)n2cccc(O)c2n1, which Potency is on record?
Answer: inactive

Question: Which Potency does the source give for CNC(=O)/C(C#N)=C/c1cccc(Oc2ccccc2)c1 here?
Answer: inconclusive [activator, partial curve, poor fit]

Question: With O=C(N/N=C/c1ccco1)c1cc2ccccc2o1 as the molecule, how does the Potency read?
Answer: inconclusive [activator, single point]

Question: Which Potency does the source give for Cc1ccc(C(=O)Nc2cccc(O)c2)cc1S(=O)(=O)N1CCCCCC1 here?
Answer: inactive

Question: With COc1ccc(C(=O)NC(=S)N2CCOCC2)cc1Br as the molecule, how does the Potency read?
Answer: inactive

Question: With COc1ccc(CNc2ccc3c(c2)nc(C)n3C)cc1 as the molecule, how does the Potency read?
Answer: inconclusive [activator, full curve, poor fit]

Question: With CNS(=O)(=O)c1cccc(C(=O)OCC(=O)Nc2cc(F)ccc2F)c1 as the molecule, how does the Potency read?
Answer: inconclusive [activator, single point]

Question: For COc1ccc(C(=O)NCCNc2nc3ccc(C)cc3cc2C#N)cc1OC, which Potency is on record?
Answer: inconclusive [activator, single point]

Question: With CCOc1ccc(CNC(=S)N/N=C/c2ccc(OC)c(OC)c2)cc1 as the molecule, how does the Potency read?
Answer: inactive

Question: For Cc1cccc(NC(=O)C2CCCN(S(=O)(=O)c3cccc4nsnc34)C2)c1 (centres undefined), which Potency is on record?
Answer: inactive

Question: Which Potency does the source give for COc1ccc(-n2nc(C(=O)NCC(=O)N3CCCC(C)C3)c3ccccc3c2=O)cc1 (centres undefined) here?
Answer: inconclusive [activator, full curve, poor fit]

Question: For COc1ccc(NC(=S)Nc2ccccn2)cc1, which Potency is on record?
Answer: inactive

Question: Which Potency does the source give for NS(=O)(=O)c1cccc(NC(=O)COC(=O)Cc2n[nH]c(=O)c3ccccc23)c1 here?
Answer: inconclusive [activator, single point]

Question: For O=C(Nc1nc2c(F)cc(F)cc2s1)c1ccc([N+](=O)[O-])o1, which Potency is on record?
Answer: inconclusive [activator, partial curve, poor fit]

Question: For Brc1ccccc1-c1nnc(-c2cccnc2)o1, which Potency is on record?
Answer: inconclusive [activator, full curve, poor fit]

Question: Which Potency does the source give for Cc1cccc(-n2ncc3c(NCc4cccnc4)ncnc32)c1 here?
Answer: inconclusive [activator, full curve, poor fit]

Question: Which Potency does the source give for COc1ccc2c(c1OC)C(=O)N1C2SC(C)(C)[C@H]1C(=O)NCC(C)C (some centres undefined) here?
Answer: inactive

Question: With O=C(NCCn1ccc2ccccc21)C1CCCCC1 as the molecule, how does the Potency read?
Answer: inconclusive [activator, partial curve, poor fit]

Question: For Cc1ccc(C)c(OCc2cc(C(=O)N(C)Cc3nccs3)no2)c1, which Potency is on record?
Answer: inconclusive [activator, partial curve, poor fit]

Question: With CCN(CC)S(=O)(=O)c1ccc(O)c(NC(=O)c2cc(-c3cc(OC)c(OC)c(OC)c3)nc3ccccc23)c1 as the molecule, how does the Potency read?
Answer: inactive

Question: For C/C(=N\OC(=O)c1ccc(F)cc1)c1nccs1, which Potency is on record?
Answer: inactive

Question: With N#C/C(=C\c1ccccc1[N+](=O)[O-])c1nc(C2CC2)cs1 as the molecule, how does the Potency read?
Answer: inconclusive [activator, partial curve, poor fit]

Question: With COC(=O)c1cnn(-c2cc(Oc3ccccc3)ncn2)c1N as the molecule, how does the Potency read?
Answer: inconclusive [activator, single point]

Question: For CCOC(=O)CSc1nc2cc(OC)ccc2cc1C#N, which Potency is on record?
Answer: inconclusive [activator, full curve, poor fit]

Question: For COc1cc(C(=O)Oc2ccccc2/C=N/NC(=O)c2ccc(Cl)cc2Cl)cc(OC)c1OC, which Potency is on record?
Answer: inconclusive [activator, full curve, poor fit]

Question: With Fc1ccc(-c2nc3cnccn3c2NC2CCCC2)cc1 as the molecule, how does the Potency read?
Answer: inactive

Question: Which Potency does the source give for NC(=O)c1ccsc1NC(=O)Cc1ccc([N+](=O)[O-])cc1 here?
Answer: inconclusive [activator, partial curve, poor fit]

Question: Which Potency does the source give for CCN(Cc1ccc(C#CCCO)cc1)CC1CCCN(CCc2cccc(F)c2)C1 (centres undefined) here?
Answer: inconclusive [activator, single point]

Question: Which Potency does the source give for Cc1ccc(Cc2cnc(N3C(=N)SC(c4ccccc4)C3=O)s2)cc1 (centres undefined) here?
Answer: inactive

Question: For COc1ccc(Nc2nc(-c3cccs3)cs2)cc1, which Potency is on record?
Answer: inconclusive [activator, full curve, poor fit]

Question: With O=C(NNC(=S)Nc1ccc(Br)cc1Cl)c1ccncc1 as the molecule, how does the Potency read?
Answer: inactive

Question: For COc1cc(Br)cc(C=Nc2cccc(C(F)(F)F)c2)c1O, which Potency is on record?
Answer: inconclusive [activator, partial curve, poor fit]

Question: For Cc1ccc2oc(C(=O)NCC(c3ccco3)N(C)C)c(C)c2c1 (centres undefined), which Potency is on record?
Answer: inconclusive [activator, single point]

Question: With CC1Cc2nc(SCC(=O)N3CCCc4ccccc43)n(C)c(=O)c2S1 (centres undefined) as the molecule, how does the Potency read?
Answer: inactive

Question: With c1csc(C2Nc3ccccc3-c3nc4ccccc4n32)c1 (centres undefined) as the molecule, how does the Potency read?
Answer: inconclusive [activator, partial curve, poor fit]

Question: Which Potency does the source give for O=C(Nc1ccc(F)cc1)c1ccc2ncsc2c1 here?
Answer: inactive

Question: For Cc1ccccc1CC1(CO)CCCN(C(=O)CCN2CCCO2)C1 (centres undefined), which Potency is on record?
Answer: inconclusive [activator, single point]

Question: For CC(=O)c1cccc(NC(=O)c2cc3nc(C)cc(C)n3n2)c1, which Potency is on record?
Answer: inconclusive [activator, partial curve, poor fit]

Question: For C/C(=N\NC(=S)NC1CCCCC1)c1cccs1, which Potency is on record?
Answer: inconclusive [activator, single point]

Question: With Cc1ccc(N/N=C/c2ccncc2)cc1 as the molecule, how does the Potency read?
Answer: inconclusive [activator, partial curve, poor fit]

Question: For Cc1ccc2cc(C(c3nnnn3C3CCCC3)N(Cc3ccccc3)Cc3ccco3)c(=O)[nH]c2c1 (centres undefined), which Potency is on record?
Answer: inconclusive [activator, single point]

Question: For CCOc1ncccc1C(=O)Nc1ccc(C(=O)Nc2ccc(OC)cc2)cc1, which Potency is on record?
Answer: inactive

Question: With Cc1ccc(C)c(OCc2cc(C(=O)N3C[C@@H](C)O[C@@H](C)C3)no2)c1 as the molecule, how does the Potency read?
Answer: inconclusive [activator, partial curve, poor fit]

Question: For O=C(N/N=C/c1ccccc1)c1n[nH]c2c1CCCC2, which Potency is on record?
Answer: inactive

Question: For CCOc1c2ccc(C(=O)NCc3ccc(OC(F)(F)F)cc3)cc2nn1CC, which Potency is on record?
Answer: inactive

Question: Which Potency does the source give for CCOC(=O)N/N=C\c1ccc([N+](=O)[O-])o1 here?
Answer: inactive

Question: With O=C(O)c1ccc(NC(=S)NC2CCCCC2)cc1 as the molecule, how does the Potency read?
Answer: inactive

Question: Which Potency does the source give for Fc1ccc(/C=N/Nc2nccnc2Cl)cc1 here?
Answer: inactive

Question: With O=C(Nc1cccc(F)c1)NC1CCCCC1 as the molecule, how does the Potency read?
Answer: inconclusive [activator, full curve]

Question: Which Potency does the source give for CCc1ccc(C(=O)Nc2ccc3nc(C)ccc3c2)cc1 here?
Answer: inconclusive [activator, partial curve, poor fit]

Question: Which Potency does the source give for CCn1nnc2sc3c(c2c1=O)CCC(C)C3 (centres undefined) here?
Answer: inconclusive [activator, partial curve]

Question: For CSc1ccc(CNc2ccc(C)cc2)cc1, which Potency is on record?
Answer: inconclusive [activator, partial curve, poor fit]

Question: With Cc1ccc(NC(=O)C2C(=O)N(C)c3ccccc32)cc1 (centres undefined) as the molecule, how does the Potency read?
Answer: inconclusive [activator, partial curve, poor fit]

Question: With O=C(Nc1nsc(-c2ccccc2)n1)c1cccs1 as the molecule, how does the Potency read?
Answer: inconclusive [activator, partial curve, poor fit]

Question: For CCOC(=O)C1=NN(C(=O)COc2ccccc2)C(O)(c2ccc(Cl)cc2)C1 (centres undefined), which Potency is on record?
Answer: inactive

Question: Which Potency does the source give for Cc1cc(C)nc(NC(=O)c2ccc(Cl)cc2Cl)n1 here?
Answer: inactive
